Test results taken from PubChem BioAssay AID624296 (National Center for Advancing Translational Sciences (NCATS), 2012).
The campaign covered roughly 350,000 compounds. About 9,900 (2.8%) were called active. Inconclusive means that the source gave no clear call. Such entries were picked first, then a sample of the others. Calls follow the shape of the dose curve; as a rule, active = well fitted activation curve with a large enough effect; inconclusive = small, poorly fitted or top-dose-only effect; inactive = no such curve, though single readings can be large or run the other way. Potencies of inconclusive entries are left out as doubtful fits.

assay: A quantitative high throughput screen for small molecules that induce DNA re-replication in MCF 10a normal breast cells.; also: nearly all actives have a fitted effect of over 50% in size; conditions: MCF 10A DNA re-replication, Hoechst nuclear intensity, 48 h; series mostly up to 46.1 µM
Potency is read from the fitted curve at half-maximal effect; tags tell the direction and shape of the fitted curve.

Row | SMILES | Potency
1 | Cc1ccc(-c2csc(NC(=O)CSc3nc4ccccc4o3)n2)cc1 | inconclusive [activator, partial curve, poor fit]
2 | O=C(NC1CCCC1)C(c1ccncc1)N(C(=O)Cn1nnc(-c2ccccc2F)n1)c1cccc(F)c1 (stereo not given) | inactive
3 | Cc1cccc(OC(C)C(=O)N2CCN(Cc3ccc4c(c3)OCO4)CC2)c1 (stereo not given) | inconclusive [activator, single point]
4 | Cc1ccc2oc3nc(C)c(C(=O)Nc4cccc(C(F)(F)F)c4)cc3c(=O)c2c1 | inactive
5 | Cn1c(C(=O)NCCN2CCOCC2)cc2c(=O)n3ccccc3nc21 | inconclusive [activator, single point]
6 | O=C(N/C(=C\c1ccccc1)C(=O)N1CCOCC1)c1cccc(Br)c1 | inconclusive [activator, partial curve, poor fit]
7 | COc1ccccc1-n1ccnc(SCC(=O)NC2CCCCC2)c1=O | inconclusive [activator, full curve, poor fit]
8 | O=C(Cn1cc2c(n1)CCCCC2)Nc1ccccc1Br | inconclusive [activator, partial curve, poor fit]
9 | CC(=O)c1ccc(S(=O)(=O)N(C)CC(=O)Nc2cccc(S(=O)(=O)N3CCCC3)c2)cc1 | inactive
10 | CN1CCC(NCCC(c2ccc(F)cc2)c2ccc(Cl)cc2)CC1 (stereo not given) | inconclusive [activator, partial curve, poor fit]
11 | CCCC1CC(=O)NC1(C(=O)OCC)C(=O)OCC (stereo not given) | inactive
12 | COc1ccc(CC(=O)NNC(=O)c2ccc(Br)o2)cc1 | inactive
13 | COc1ccc(CCn2c(=N)c(C(=O)NCc3ccco3)cc3c(=O)n4ccccc4nc32)cc1 | active: 9.2 µM
14 | COc1ccc(N(CC(=O)NCCSCc2ccc(C)cc2)S(=O)(=O)c2ccccc2)cc1 | inconclusive [activator, partial curve]
15 | O=C(NCCN1CCOCC1)c1ccc2c(c1)N(Cc1ccc(Cl)cc1)C(=O)CS2 | inconclusive [activator, single point]
16 | Oc1ccccc1Cn1c(-c2ccccc2O)nc2ccccc21 | inconclusive [activator, single point]
17 | COc1ccc2c(c1)oc1c(SCc3nc4ccccc4[nH]3)nc(C)nc12 | inconclusive [activator, partial curve, poor fit]
18 | COc1ccc(/C=N/NC(=O)c2cccc(NC(=O)c3ccccc3Cl)c2)cc1OC | inconclusive [activator, partial curve, poor fit]
19 | CCC(=O)N(c1nnc(SCC(=O)Nc2ccc(N3CCOCC3)cc2)s1)C1CC1 | inactive
20 | COc1ccc(C2C(C#N)=C(N)Oc3cc4c(cc32)OCO4)cc1 (stereo not given) | active: 20.6 µM
21 | CSc1cccc(NC(=S)N2CCCN(Cc3ccccc3F)C2)c1 | inconclusive [activator, partial curve, poor fit]
22 | O=C(CC(O)(C(F)(F)F)C(F)(F)F)Nc1ccc(Cl)c(Cl)c1 | active: 5.8 µM
23 | CC(C)CN(C(=O)C1CCCCC1)C1CCS(=O)(=O)C1 (stereo not given) | inconclusive [activator, single point]

Row | SMILES | Potency
24 | CN(C)c1ccc(-c2nc3cnccn3c2Nc2ccc3c(c2)OCCO3)cc1 | active: 18.4 µM
25 | COc1cc(NC(=O)Cc2cccs2)ccc1-n1cnnn1 | inconclusive [activator, single point]
26 | Cc1nn(Cc2ccc(Cl)cc2)c(C)c1NC(=O)CSc1nc2c(c(C(F)(F)F)n1)CCc1ccccc1-2 | inconclusive [activator, partial curve, poor fit]
27 | CC(NC(=O)C1(S(=O)(=O)c2ccc(Cl)cc2)CC1)c1ccccc1 (stereo not given) | inactive
28 | Cc1cccc(-c2nsc(SCC(=O)Nc3ccc4c(c3)OCO4)n2)c1 | inconclusive [activator, single point]
29 | COCCCn1cc(C(=O)c2cc(Br)ccc2O)cc(C#N)c1=O | inconclusive [activator, full curve, poor fit]
30 | CCc1ccc2oc(-c3cccc(NC(=O)c4cccnc4)c3)nc2c1 | inconclusive [activator, single point]
31 | Cn1c(SCC(=O)c2ccccc2)nnc1-c1ccco1 | inconclusive [activator, single point]
32 | CCOC(=O)c1ccc(NC(=S)Nc2ccc(Cl)cn2)cc1 | inconclusive [activator, single point]
33 | Cc1cc(C)c(C(=O)COC(=O)C2CCN(c3ccc(C(F)(F)F)cn3)CC2)c(C)c1 | inactive
34 | C/C(CC(=O)Nc1ccc(Cl)cc1Cl)=N\NC(=O)c1ccco1 | inconclusive [activator, partial curve, poor fit]
35 | Cc1ccccc1-n1nc2c(c1NC(=O)c1ccc3c(c1)OCO3)CS(=O)(=O)C2 | inactive
36 | CC(C)CNC(=O)[C@@H]1CSC2c3ccccc3C(=O)N21 (stereo not given in full) | inactive
37 | Cn1c(=O)c2c(nc(Cl)n2CC(=O)NC2(C#N)CCCCC2)n(C)c1=O | inactive
38 | COC(=O)c1c2c(nc3ccccc13)CCC2 | inconclusive [activator, single point]
39 | Cc1nnc(NS(=O)(=O)c2ccc(Br)cc2)s1 | inactive
40 | Cc1ccc(NC(=O)/C(=C/c2ccco2)c2ccccc2)c(C)c1 | inconclusive [activator, single point]
41 | Cc1ccc(C=NCc2ccncc2)c(O)c1 | inconclusive [activator, single point]
42 | CSc1nc(N)nc2c1ncn2CC(=O)NCCCc1ccccc1 | inactive
43 | COc1cc(C(=O)NNC(=S)NC(=O)c2ccc(F)cc2)cc(OC)c1OC | active: 23.1 µM
44 | CCN(CC)S(=O)(=O)c1ccc(NC(=O)C(C)N(c2ccccc2)S(C)(=O)=O)cc1 (stereo not given) | inconclusive [activator, single point]
45 | CN(CC(=O)Nc1ccccc1C(F)(F)F)C(=O)C1CC1 | inactive
